From article PMC4336329 (PLoS ONE, 2015)
Hit rate of the full screen: of about 310,000 compounds, about 14,000 (4.5%) showed an effect of 50% or more. Effects have a minus sign here. The list shows a part of the results.

target: human ether-à-go-go-related gene (hERG) potassium channel (human, UniProt Q12809); experiment: primary screen, population patch clamp on CHO cells stably expressing hERG
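Further: peak tail current of the secondary pulse compared with the same well before compound.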

Chain of human ether-à-go-go-related gene (hERG) potassium channel (Q12809 whole entry, looked up): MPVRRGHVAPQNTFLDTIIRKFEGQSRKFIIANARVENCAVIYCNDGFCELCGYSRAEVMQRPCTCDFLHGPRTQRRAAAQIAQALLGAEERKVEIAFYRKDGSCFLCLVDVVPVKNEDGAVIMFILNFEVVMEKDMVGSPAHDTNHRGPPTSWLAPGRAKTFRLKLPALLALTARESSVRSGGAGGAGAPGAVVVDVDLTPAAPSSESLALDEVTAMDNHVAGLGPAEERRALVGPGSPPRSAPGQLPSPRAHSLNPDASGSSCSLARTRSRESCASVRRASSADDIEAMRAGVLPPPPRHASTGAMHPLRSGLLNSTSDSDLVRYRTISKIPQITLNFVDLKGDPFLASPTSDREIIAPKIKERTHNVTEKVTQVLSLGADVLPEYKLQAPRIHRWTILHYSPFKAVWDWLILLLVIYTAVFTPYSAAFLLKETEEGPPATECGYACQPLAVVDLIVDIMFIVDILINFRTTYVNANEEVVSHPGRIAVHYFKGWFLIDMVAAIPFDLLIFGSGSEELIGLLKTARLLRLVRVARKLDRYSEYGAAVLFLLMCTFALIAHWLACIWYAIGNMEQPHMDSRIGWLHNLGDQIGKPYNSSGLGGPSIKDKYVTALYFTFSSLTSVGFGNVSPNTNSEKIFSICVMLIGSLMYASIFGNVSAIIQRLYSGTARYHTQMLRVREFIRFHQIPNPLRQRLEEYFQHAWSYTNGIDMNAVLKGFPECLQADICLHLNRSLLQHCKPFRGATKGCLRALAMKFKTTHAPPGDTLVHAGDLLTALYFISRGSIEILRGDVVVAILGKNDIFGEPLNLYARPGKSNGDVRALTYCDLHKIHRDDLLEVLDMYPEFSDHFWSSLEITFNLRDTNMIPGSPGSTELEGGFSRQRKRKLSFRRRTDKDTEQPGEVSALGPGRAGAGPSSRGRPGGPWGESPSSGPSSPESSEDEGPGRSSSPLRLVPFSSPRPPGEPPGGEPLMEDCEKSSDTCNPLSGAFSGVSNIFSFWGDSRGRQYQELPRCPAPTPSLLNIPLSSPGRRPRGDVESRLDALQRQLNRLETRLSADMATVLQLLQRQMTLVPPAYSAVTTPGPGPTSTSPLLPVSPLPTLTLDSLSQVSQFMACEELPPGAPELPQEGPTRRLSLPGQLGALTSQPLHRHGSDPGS

Compared with CCCCC(=O)Nc1ccc2c(c1)nc(CCNC(=O)c1ccco1)n2C, CCCNC(=O)CC1C(=O)N(Cc2ccccc2)C(C)c2nc3ccccc3n21 (stereo not drawn) is higher in “hERG current change (%, negative = inhibition) at 10uM” value: -11.1% for the first, 4.85% for the second.

Going from O=C1C=C(c2ccc3c(c2)OCCO3)C[C@@H](c2ccc(F)cc2)C1 to CC(=O)Nc1ccc(C(=O)Nc2ccc3c(c2)OCO3)cc1, the “hERG current change (%, negative = inhibition) at 10uM” value falls from 8.1% to -4.62%.

Compared with CC(C)(C)NC(=O)NC(=O)CSc1nnc(-c2ccccc2F)n1N, Cc1cc(NC(=O)CSc2nnc(Cc3ccccc3)n2C)no1 is lower in “hERG current change (%, negative = inhibition) at 10uM” value: 13.3% for the first, -7.24% for the second.

Compared with Cn1cccc1C(C(=O)NC1CCCCC1)N(C(=O)Cc1cccs1)c1ccc2c(c1)OCO2 (stereo not drawn), CCc1cccc(N(C(=O)c2csnn2)C(C(=O)NC2CCCC2)c2cccnc2)c1 (stereo not drawn) is lower in “hERG current change (%, negative = inhibition) at 10uM” value: -5.67% for the first, -7.88% for the second.

Going from CC(NC(=O)C12CC3CC(CC(O)(C3)C1)C2)c1ccccc1 (stereo not drawn) to CCOc1ccccc1NC(=O)C(NC(=O)C1CCC(C)CC1)C(C)C (stereo not drawn), the “hERG current change (%, negative = inhibition) at 10uM” value falls from 6.83% to -8.76%.

Compared with CCCC(=O)Nc1ccc(S(=O)(=O)Nc2cc(OC)nc(OC)n2)cc1, COc1ccc(NC(=O)CN2C(=O)NC(C)(c3ccc(C)cc3)C2=O)cn1 (stereo not drawn) is lower in “hERG current change (%, negative = inhibition) at 10uM” value: 8.83% for the first, -0.713% for the second.

Going from CCC(=O)N1CC2(C)CN(C(=O)CC)CC(C)(C1)C2 to CCC(CO)N=CC1=C(O)CC(C)(C)CC1=O (stereo not drawn), the “hERG current change (%, negative = inhibition) at 10uM” value rises from 3.98% to 14.8%.

Compared with Cc1ccccc1NC1=C/C(=N\S(=O)(=O)c2ccc(C(=O)O)cc2)c2ccccc2C1=O, O=C(Nc1ccccc1-c1ccccc1)c1ccc(Cl)c([N+](=O)[O-])c1 is higher in “hERG current change (%, negative = inhibition) at 10uM” value: 2.23% for the first, 14.1% for the second.

Going from Cc1ccc(-c2c[n+](Cc3cccc(Cl)c3)c3n2CCC3)cc1.[Br-] to Cc1ccc2nc(-c3ccc(NC(=S)NC(=O)C(C)C)cc3)sc2c1, the “hERG current change (%, negative = inhibition) at 10uM” value rises from -57.7% to 2.52%.

Compared with COc1ccc(OCC(O)CNC(=O)Nc2cc(C)cc(C)c2)cc1 (stereo not drawn), CCCOc1ccc(NC(=O)CC2C(=O)N(c3ccc(OCC)cc3)C(=S)N2C2CC2)cc1 (stereo not drawn) is lower in “hERG current change (%, negative = inhibition) at 10uM” value: 0.613% for the first, -3.76% for the second.

Going from COc1ccc(CN2C(=O)[C@@H]3C(c4ccccc4Cl)=NO[C@@H]3C2=O)cc1 to Cc1noc(NS(=O)(=O)c2ccc(N3C(=O)c4ccccc4C3=O)cc2)c1C, the “hERG current change (%, negative = inhibition) at 10uM” value rises from -5.69% to 14.5%.

Compared with Nc1ccc2nc(CCCCCCc3nc4ccc(N)cc4[nH]3)[nH]c2c1, N#C/C(=C(/O)CN1C(=O)c2ccccc2C1=O)c1nc2ccccc2[nH]1 is lower in “hERG current change (%, negative = inhibition) at 10uM” value: 19.6% for the first, 11.6% for the second.

First: CC1CCCCN1C(=O)CSc1nnc2c(n1)[nH]c1ccccc12 (stereo not drawn)
Second: CCn1c(SCC(=O)Nc2ccc3c(c2)OCO3)nnc1C1CC1
The “hERG current change (%, negative = inhibition) at 10uM” value of the first is lower: -4.49% for the first, 2.87% for the second.

First: CCOC(=O)c1sc(Nc2cccc(C)c2C)nc1C
Second: Cc1cc(C)c(C#N)c(OCC(=O)c2ccccc2)n1
The “hERG current change (%, negative = inhibition) at 10uM” value of the first is lower: -21.7% for the first, -14.2% for the second.

Going from Cc1c(NC(=O)CN2C(=O)NC3(CCC(C)CC3)C2=O)c(=O)n(-c2ccccc2)n1C (stereo not drawn) to CCNC(=O)CC1C(=O)N(c2ccccc2)C(=O)N1CCc1ccc(OC)c(OC)c1 (stereo not drawn), the “hERG current change (%, negative = inhibition) at 10uM” value falls from 19.4% to 17.5%.

First: Cc1ccccc1NC(=O)c1cc(=O)c2ccccc2o1
Second: Cc1ccc(NC(=O)CCn2c(=S)oc3ccccc32)cc1
The “hERG current change (%, negative = inhibition) at 10uM” value of the first is lower: -5.49% for the first, 1.97% for the second.

First: CNC(=O)C(=O)NCCC1CCCCN1S(=O)(=O)c1cccs1 (stereo not drawn)
Second: O=C(O)CCC(=O)c1ccc2c(c1)CCCC2
The “hERG current change (%, negative = inhibition) at 10uM” value of the first is lower: 8.93% for the first, 10.8% for the second.

Going from N#CC(c1cccc(Cl)c1)c1ncc(C(F)(F)F)cc1Cl (stereo not drawn) to COc1ccccc1NC(=O)CSc1nnc(CC(=O)Nc2cccc(C(F)(F)F)c2)n1C, the “hERG current change (%, negative = inhibition) at 10uM” value rises from 1.1% to 3.57%.

Compared with N#Cc1ccccc1COC(=O)CCCC1=NS(=O)(=O)c2ccccc2N1, COc1ccccc1C(=O)NC(=S)N1CCCc2ccccc21 is lower in “hERG current change (%, negative = inhibition) at 10uM” value: -6.01% for the first, -31.1% for the second.

Compared with O=C1CCC(c2ccccc2)=NN1, Cc1nn(CCOc2ccccc2Cl)c(C)c1[N+](=O)[O-] is higher in “hERG current change (%, negative = inhibition) at 10uM” value: 9.05% for the first, 14.1% for the second.

First: COc1cc(C2NC(=O)CCC2[N+](=O)[O-])cc(Br)c1OC (stereo not drawn)
Second: C#CC(C)(CC)NC(=O)c1cc2nc(C3CC3)cc(C(F)(F)F)n2n1 (stereo not drawn)
The “hERG current change (%, negative = inhibition) at 10uM” value of the first is higher: 13% for the first, -3.12% for the second.

Going from C=CCOc1ccc(CN(C)CC(O)COc2cccc3ccccc23)cc1 (stereo not drawn) to CC(C)(C)NC(=O)C(c1c[nH]c2ccccc12)N(C(=O)Cn1nnc(-c2ccc(F)cc2)n1)c1cccc(O)c1 (stereo not drawn), the “hERG current change (%, negative = inhibition) at 10uM” value rises from -23.2% to -6.27%.

First: COCCNC(=O)C(c1ccc(Cl)cc1)N(C(=O)Cn1nnc2ccccc21)c1cccnc1 (stereo not drawn)
Second: O=C(CSc1nc2nc3c(cc2c(=O)n1-c1ccccc1)CCCC3)Nc1cccc2ccccc12
The “hERG current change (%, negative = inhibition) at 10uM” value of the first is higher: 4.57% for the first, -20.7% for the second.

Compared with Cc1cc([N+](=O)[O-])nn1CC(=O)NNC(=S)Nc1ccc([N+](=O)[O-])cc1, Cc1ccc(-n2nc3c(c2NC(=O)CCC2CCCCC2)CS(=O)C3)cc1 (stereo not drawn) is lower in “hERG current change (%, negative = inhibition) at 10uM” value: 11% for the first, -18.3% for the second.

First: O=C1C=C(NCCN2CCOCC2)C(=O)c2cnccc21
Second: COc1ccccc1NC(=O)Nc1nc(CC(=O)N2CCN(c3ccc(F)cc3)CC2)cs1
The “hERG current change (%, negative = inhibition) at 10uM” value of the first is lower: 4.18% for the first, 12.4% for the second.

Going from Oc1cccc(/C=N/n2c(C3CCCCC3)n[nH]c2=S)c1 to CC(=O)c1cccc(NC2=NCC(C)S2)c1 (stereo not drawn), the “hERG current change (%, negative = inhibition) at 10uM” value falls from 14.1% to 3.47%.

Going from COC(=O)c1cc2c(ccn2-c2ccc(F)cc2)n1C(C)C to Oc1ccc(Cn2ccnc2)c2cccnc12, the “hERG current change (%, negative = inhibition) at 10uM” value falls from -8.54% to -10.6%.

Compared with Cc1cc(C(=O)Nc2nncs2)oc1C, C[N+]1(CCOC(=O)C2(c3ccccc3)CCCC2)CCCCC1 is lower in “hERG current change (%, negative = inhibition) at 10uM” value: 10.5% for the first, 4.33% for the second.

For NNC(=O)CCCCCCCCCCOCCCCO, the “hERG current change (%, negative = inhibition) at 10uM” value was 6.09%.
